# Measurements: PMC4336329 (PLoS ONE, 2015)
# The whole screen tested about 310,000 compounds, of which about 2,200 (0.71%) showed an effect of 50% or more. The effect is printed as a negative number. Some of the results follow.
# Target: human ether-à-go-go-related gene (hERG) potassium channel (human, UniProt Q12809)
# Assay: primary screen, population patch clamp on CHO cells stably expressing hERG
# human ether-à-go-go-related gene (hERG) potassium channel, sequence (Q12809 whole entry, looked up): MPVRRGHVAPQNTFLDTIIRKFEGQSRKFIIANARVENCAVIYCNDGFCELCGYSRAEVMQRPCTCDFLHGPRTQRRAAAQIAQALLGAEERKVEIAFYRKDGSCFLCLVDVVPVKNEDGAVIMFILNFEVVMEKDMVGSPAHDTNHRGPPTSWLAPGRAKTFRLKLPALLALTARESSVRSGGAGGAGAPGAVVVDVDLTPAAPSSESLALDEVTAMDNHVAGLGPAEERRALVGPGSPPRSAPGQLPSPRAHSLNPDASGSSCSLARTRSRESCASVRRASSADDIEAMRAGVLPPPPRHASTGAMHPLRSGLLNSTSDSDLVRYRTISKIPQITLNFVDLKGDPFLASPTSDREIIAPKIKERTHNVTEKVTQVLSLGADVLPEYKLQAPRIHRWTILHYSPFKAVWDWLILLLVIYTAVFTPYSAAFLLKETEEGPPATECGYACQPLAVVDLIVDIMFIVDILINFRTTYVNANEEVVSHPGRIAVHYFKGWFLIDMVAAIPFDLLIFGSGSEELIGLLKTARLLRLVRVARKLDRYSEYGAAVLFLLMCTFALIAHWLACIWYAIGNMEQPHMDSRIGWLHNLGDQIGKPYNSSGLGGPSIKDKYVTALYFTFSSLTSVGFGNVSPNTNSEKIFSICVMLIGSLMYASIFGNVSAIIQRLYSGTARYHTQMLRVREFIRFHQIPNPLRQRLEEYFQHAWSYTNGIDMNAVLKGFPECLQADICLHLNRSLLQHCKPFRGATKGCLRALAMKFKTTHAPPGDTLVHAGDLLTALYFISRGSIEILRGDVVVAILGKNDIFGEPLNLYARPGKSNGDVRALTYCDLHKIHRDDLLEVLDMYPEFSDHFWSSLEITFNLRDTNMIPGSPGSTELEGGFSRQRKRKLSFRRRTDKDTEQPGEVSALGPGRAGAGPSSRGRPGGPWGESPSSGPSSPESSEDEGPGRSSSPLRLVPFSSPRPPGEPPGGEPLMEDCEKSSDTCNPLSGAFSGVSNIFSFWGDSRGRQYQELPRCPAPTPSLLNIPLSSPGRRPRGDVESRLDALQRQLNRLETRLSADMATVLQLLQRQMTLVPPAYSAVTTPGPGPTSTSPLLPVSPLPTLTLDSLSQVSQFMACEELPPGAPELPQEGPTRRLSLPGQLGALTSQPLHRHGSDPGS
row,Compound,"hERG current change (%, negative = inhibition) at 1uM [%]"
1,CCOc1ccc(NC(=O)[C@H](C)NC(=O)C2CC(=O)N(c3ccc(OC)cc3)C2)cc1 (stereo partly shown),11.4
2,O=C(NCCc1ccccc1)C1CC(c2ccccc2O)=NO1 (stereo not shown),-4.71
3,CCN1CCN(C(=O)C(N)Cc2ccccc2)CC1 (stereo not shown),15.1
4,O=C(COc1ccc2ccc(=O)oc2c1)Nc1cc([N+](=O)[O-])ccc1F,4.05
5,CN1CCN(c2ccc(NC(=O)C(C)(C)C)cc2)CC1,13.6
6,O=S(=O)(Nc1ccc2nc(-c3ccco3)[nH]c2c1)c1ccccc1,3.11
7,Cc1ccc2nc(COc3ccc(N(C)S(=O)(=O)c4ccccc4)cc3)cc(=O)n2c1,-35.8
8,CCSc1nc(N)c(NC(=O)c2ccc(Br)o2)c(=O)[nH]1,6.68
9,CN(C)CCNC(=O)Cn1c(=O)c2cccn2c2ccc(F)cc21,11.8
10,O=C(CSc1nnc(NC(=O)c2ccc(S(=O)(=O)N3CCOCC3)cc2)s1)Nc1ccccc1C(F)(F)F,19.3
11,COc1ccc(C(=O)N(Cc2ccccc2)Cc2cc3cc4c(cc3[nH]c2=O)OCCO4)cc1,-1.77
12,CC(NC(=O)CCC(=O)c1cccs1)c1ccccc1 (stereo not shown),14.1
13,Cc1cccc(C)c1NC(=O)N1CCC(n2cnc3ccccc32)CC1,12.2
14,COc1ccc(N2CCN(S(=O)(=O)CCNC(=O)c3cccs3)CC2)cc1,12.4
15,Cc1ccc2cc(CN(c3ccccc3C)S(=O)(=O)c3ccccc3)c(=O)[nH]c2c1,10.6
16,O=C(NC(=S)Nc1nc2c(ccc3ccccc32)s1)c1cccs1,12
17,Cc1nn(-c2ccccc2)c2nc(-c3ccco3)cc(C(=O)O)c12,6.92
18,Cn1c(N)c(C(=O)CSc2nnc(C3CC3)n2-c2ccccc2)c(=O)n(C)c1=O,-4.35
19,CC1CN(C(=O)Nc2cccc(Cl)c2)C2(CCCCCC2)O1 (stereo not shown),10.9
20,Fc1ccc(C2NCCc3[nH]cnc32)cc1 (stereo not shown),17.6
21,Cc1ccc2nc(C3CCCN(C(=O)NCc4ccccc4)C3)[nH]c2c1 (stereo not shown),1.19
22,CCOc1ccc(OCC)c(-c2c(=O)n(OCc3ccc(C(C)(C)C)cc3)c3ccccc3[n+]2[O-])c1,21.5

row,Compound,"hERG current change (%, negative = inhibition) at 1uM [%]"
1,C#CCOCCOCCOCCNc1nc(N2CCN(C(=O)[C@H]([C@@H](C)CC)n3cc([C@@H](N)Cc4ccc(O)cc4)nn3)CC2)nc(N2CCN(C(=O)[C@H]([C@@H](C)CC)n3cc([C@@H](N)CC(C)C)nn3)CC2)n1.Cl,-3.16
2,COc1ccc2cc(CCNC(=O)c3cc4ccccc4o3)c(=O)[nH]c2c1,5.36
3,O=C(N/N=C/c1cccnc1)c1cc(-c2ccc(Br)cc2)nc2ccccc12,17.1
4,CCC(=O)NC(C)C(c1cccs1)N1CCOCC1 (stereo not shown),1.95
5,CC(=O)CC(=O)NC(=NC1CCCCC1)Nc1nc(C)cc(C)n1,15.9
6,Cc1nc2ccccc2c2ncccc12,6.96
7,CC(C)=C(NC(=O)c1ccccc1)C(N)=O,1.4
8,O=C(CCn1c(=O)sc2ccccc21)NCc1ccco1,7.61
9,COC(=O)C1=C(C(=O)c2ccc(C)cc2)C(c2ccc(O)c(OC)c2)n2nnnc2N1 (stereo not shown),10.6
10,Cc1ccc(N2C(=O)CSC2c2c(F)cccc2Cl)cc1 (stereo not shown),12.2
11,CCN(C(=O)CN1C(=O)COc2ccc(S(=O)(=O)N3CCOCC3)cc21)c1ccc(OC)cc1,11.1
12,O=C1NN(c2ccccc2)C(=O)/C1=C/c1ccc(Sc2cccc3ccccc23)o1,12.6
13,CCc1ccc(S(=O)(=O)/N=C2\C=C(Nc3ccc(C(=O)O)cc3)C(=O)c3ccccc32)cc1,10.6
14,O=[N+]([O-])c1ccc(-c2csc(N3CCc4ccccc4C3)n2)cc1,-0.46
15,O=S(=O)(c1ccc(Cl)s1)N1CCN(CCc2ccccc2)CC1,0.956
16,CC(C)NC(=O)CN(Cc1ccc(F)cc1)C(=O)CCC(=O)Nc1ccccn1,12
17,CCOC(=O)Cc1csc(NC(=O)c2cc3ccccc3o2)n1,2.01
18,O=C(COC(=O)/C=C/c1ccccc1)NCCNC(=O)COC(=O)/C=C/c1ccccc1,9.44
19,NC(=O)CSc1nnc(-c2ccc(S(=O)(=O)N3CCCC3)cc2)n1CC1CCCO1 (stereo not shown),-5.87
20,Nc1ncnc2c1ncn2[C@@H]1O[C@H](CO)C[C@H]1O,16
21,Cc1ccc(NS(=O)(=O)c2ccc(CCC(=O)O)cc2)cc1,5.05
22,COCc1nnc(NC(=O)C2CC(=O)N(C3CCCCC3)C2)s1 (stereo not shown),6.49

row,Compound,"hERG current change (%, negative = inhibition) at 1uM [%]"
1,COCC1CCCCN1C(=O)c1ccc2oc(CCCc3ccccc3)nc2c1 (stereo not shown),3.91
2,COc1cc([N+](=O)[O-])ccc1NC(=O)c1cccc(NC(=O)C(C)C)c1,14.6
3,S=C(Nc1ccc(Cl)cc1)Nc1ccc2c(c1)OCCO2,9.87
4,C/C(=N\NC(=O)c1csc2ccccc12)c1ccc(O)cc1,7.42
5,COc1ccc(F)cc1COc1nc(C)nc2ccccc12,2.38
6,O=C(Cn1cncc1-c1ccc([N+](=O)[O-])cc1)Nc1ccccc1F,-0.387
7,Cc1cc([N+](=O)[O-])nn1CC(=O)Nc1sc2c(c1C(N)=O)CCCC2,2.6
8,Clc1ccccc1C1SCC2Nc3ccccc3CN21 (stereo not shown),9.81
9,Cc1ccc(CNC(=O)Cn2cc(C(F)(F)F)ccc2=O)cc1,15.8
10,CCCCCCCC(=O)OCC(=O)[C@@]1(O)CC[C@H]2[C@@H]3CCC4=CC(=O)CC[C@]4(C)[C@H]3[C@@H](O)C[C@@]21C,12.2
11,Oc1cc(-n2cccn2)c(O)cc1-n1cccn1,14
12,COc1ccccc1/C=N/NC1=NCCCCC1.Cl,5.68
13,C/C(=N/NC(=O)c1ccc(C(C)(C)C)cc1)c1ccccn1,4.4
14,O=C(Cc1cccc2ccccc12)Nc1ccc(N2CCOCC2)cc1,6.24
15,Cl.OC(CCN1CCCCC1)(c1ccccc1)C1CCCCC1 (stereo not shown),-0.0042
16,CCOC(=O)c1sc2c(c1C)c(=O)n(Cc1ccccc1)c(=O)n2CCN(C)C,-21.7
17,CCOC(=O)c1c(N)sc(C(=O)OC)c1C,13.9
18,COc1ccc(-c2csc(Nc3ccc(S(=O)(=O)Nc4cc(C)on4)cc3)n2)cc1C,6.61
19,CCOc1ccc(OCCC(=O)OCC(=O)Nc2ccc(C)c(S(=O)(=O)N3CCCCC3)c2)cc1,-0.84
20,O=C(Nc1nncs1)c1cccc(S(=O)(=O)N2CCCCC2)c1,-13.9
21,COc1ccc(NC(=O)COC(=O)c2ccncc2)c(OC)c1,-0.39
22,COC(CSc1nc(N)c2c3c(sc2n1)CN(C)CC3)OC,17.2

row,Compound,"hERG current change (%, negative = inhibition) at 1uM [%]"
1,Cc1ccc(CNC(=O)C23CN(Cc4ccccc4)CC2C(c2cccc([N+](=O)[O-])c2)=NO3)cc1 (stereo not shown),11.6
2,CN(N)c1nc(-c2ccccc2)nnc1C(F)(F)F,9.07
3,CCC1(c2ccc(F)cc2)NC(=O)N(CC(=O)Nc2ccc(N3CCCCC3)cc2)C1=O (stereo not shown),7.99
4,Cc1nn(C(C)C(=O)NNC(=S)Nc2ccc(F)cc2)c(C)c1[N+](=O)[O-] (stereo not shown),9.44
5,Cc1nn(Cc2ccccc2)c(C)c1C(=O)OCC(=O)NC1CCS(=O)(=O)C1 (stereo not shown),0.565
6,Cc1ccc(C(c2sc3nc(C)nn3c2O)N2CCN(c3ccccc3F)CC2)cc1 (stereo not shown),-11.7
7,O=C(c1ccco1)N1CCN(C(=O)C(Cc2ccccc2)NS(=O)(=O)c2cccs2)CC1 (stereo not shown),-13.4
8,O=C(Nc1ccccc1F)c1ccc(Cn2cc(Br)cn2)cc1,0.738
9,Cc1cccc(C(=O)NNC(=O)C2CCN(C(=O)OC(C)(C)C)CC2)c1,14.9
10,CCS(=O)(=O)c1nc(S(=O)(=O)c2ccc(Cl)cc2)c(N2CCCC2)s1,13.1
11,COc1ccccc1C1c2ccc3ccccc3c2Oc2ncn(CCCO)c(=N)c21 (stereo not shown),-5.99
12,COc1cc(C(=O)NNC(=O)C2CSC3(C)CCC(=O)N23)cc(OC)c1OC (stereo not shown),6.68
13,C[n+]1cn(Cc2ccc(C#N)cc2)c2ccccc21.[Cl-],-0.811
14,COCCN(CC1CCCN(C2Cc3ccccc3C2)C1)C(=O)CCSC (stereo not shown),-4.27
15,O=C1N=C(N2CCOCC2)S/C1=C\C=C/c1ccccc1,-30
16,Cc1cccc(NC(=O)N2CCCC(CNC(=O)c3ccccc3Cl)C2)c1C (stereo not shown),20.7
17,CCOc1ccc(Nc2ccc(S(=O)(=O)N3CCN(C)CC3)cc2[N+](=O)[O-])cc1OCC,8.31
18,CC1(C)CC(=O)NC=C(c2ccccc2)C1,-4.42
19,Cc1ccc(CSc2nccc(-c3c(C)nc4ccccn34)n2)cc1,12.6
